# Measured values taken from PubChem BioAssay AID686979 (National Center for Advancing Translational Sciences (NCATS), 2013).
# Among all 420,000 compounds or so, about 50,000 (12%) were called active. This list was built around the results that the source calls inconclusive (neither active nor inactive); the mix of calls is not that of the screen. The call rests on the fitted dose curve; in most records, active means well fitted inhibition curve with a large enough effect; inconclusive means small, poorly fitted or top-dose-only effect; inactive means flat fitted curve, though single readings scatter. No potency is given beside an inconclusive call; the fits are too rough.
# Assay: qHTS for Inhibitors of human tyrosyl-DNA phosphodiesterase 1 (TDP1): qHTS in cells in presence of CPT; further: nearly all actives have a fitted effect of over 55% in size
# Details: chicken DT40 Tdp1-/-;hTDP1 cells + 20 nM CPT, ATP luminescence, 48 h; activity change, negative = growth inhibition: at 46.2 µM (top of the series)
# In short: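 Chicken DT40 Tdp1-/- cells stably complemented with human TDP1 were seeded at 400 cells/well in medium containing 20 nM camptothecin, exposed to pin-transferred compounds, and grown at 37 °C for at least 48 hr. Viability was read as ATP luminescence.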
# On the % scale 0 is the no-effect control and ±100 the full control effect; potency means the concentration at half of the fitted maximal effect; tags describe the fitted curve by direction and shape.
Structure (SMILES),Potency,"activity change, negative = growth inhibition"
Cc1cccc(C)c1NC(=O)CSc1nnc(C)n1CC1CCCO1 (configuration not stated),"inconclusive [inhibitor, single point]",
Cc1cccc(C)c1NC(=O)C(=O)NCC(c1ccc2c(c1)OCO2)N1CCN(C)CC1 (configuration not stated),,inactive: -7.55%
Cc1cc(C)c(-n2nnnc2SCC(=O)c2cccs2)c(C)c1,"inconclusive [inhibitor, single point]",
CCCn1c(SCC(=O)NCCc2ccc(OC)c(OC)c2)nc2c1c(=O)n(C)c(=O)n2C,,inactive: -27%
Cc1ccc(-n2[nH]c(C)c(C=NCc3ccncc3)c2=O)cc1,"inconclusive [inhibitor, single point]",
CCOC(=O)c1oc2ccccc2c1CN1CCN(C(=O)c2ccccc2)CC1,"inconclusive [inhibitor, single point]",
CCOc1cc(CNc2ccc(N3CCOCC3)cc2)cc(Br)c1OCC,"inconclusive [inhibitor, single point]",
CCOc1c(CNCCSc2nnnn2C)cccc1OC,,inactive: -1.81%
CCNC(=S)N/N=C/c1cccs1,"inconclusive [inhibitor, single point]",
CC(C)Cc1nnc(NC(=O)CSc2nc(=O)cc(N)n2-c2ccccc2)s1,,inactive: 5.33%
Oc1cc(O)c2c(c1)OC(c1ccc(O)c(O)c1)C(O)C2 (configuration not stated),,inactive: -17.7%
Cc1cc(C)nc(N2CCC(C(=O)Nc3ccc4c(c3)OCO4)CC2)n1,active: 8.2 µM,
O=C(O)CCC(=O)Nc1ccc(C(=O)OC2CCCCC2)cc1,,inactive: 1.99%
N#Cc1ccc(OCc2nnc(SCC(=O)c3ccccc3)n2-c2ccccc2)cc1,active: 23.1 µM,
Cc1ccc(-c2nnc(N3CCCCCC3)c3ccccc23)cc1,"inconclusive [inhibitor, single point]",
Cc1cc2c(cc1C)N(C(=O)CCl)CCN2C(=O)CCl,active: 0.461 µM,
CN(C)c1ccc(NC(=O)CSc2nc(C3CC3)nc3ccccc23)cc1,"inconclusive [inhibitor, partial curve, poor fit]",
Cc1cccc(OCCn2nc(C(=O)O)c3ccccc3c2=O)c1,,inactive: -18%
CC(=O)c1ccc(NC(=O)CCn2cccn2)cc1,,inactive: 26.6%
COc1ccc2c(c1)-c1c(sn(-c3ccccc3)c1=S)C(C)(C)N2,"inconclusive [inhibitor, single point]",
CCOC(=O)c1cc2c(=O)n3ccccc3nc2n(Cc2ccccc2)c1=N,"inconclusive [inhibitor, single point]",
Cc1ccc(Cn2c(=O)n(Cc3ccc(C(=O)NC4CCN(Cc5ccccc5)CC4)cc3)c(=O)c3ccccc32)cc1,,inactive: 6.54%
O=C1c2cc(Cl)ccc2OC2(CCNCC2)C12CC(c1ccccc1)=NO2 (configuration not stated),active: 20.6 µM,
Cc1nc2ccccc2n1CC(O)COCC1CC=CCC1 (configuration not stated),active: 14.6 µM,

Structure (SMILES),Potency,"activity change, negative = growth inhibition"
COc1ccc(N2CCN(CC(=O)Nc3nc4c(s3)CC(C)CC4)CC2)cc1 (configuration not stated),"inconclusive [inhibitor, single point]",
Cc1ccc(OCCN2CCN(c3nc(NCc4ccco4)c4ccccc4n3)CC2)cc1,"inconclusive [inhibitor, partial curve, poor fit]",
CCOC(=O)N1CCN(C(=O)CCc2c(C)nc3c(c(C)nn3-c3ccc(C)c(C)c3)c2C)CC1,"inconclusive [inhibitor, partial curve, poor fit]",
O=c1c(-c2ccc(F)cc2)nc2cnc(N3CCNCC3)nc2n1C1CC1,"inconclusive [inhibitor, single point]",
O=C(O)C1C2C=CC3(CN(Cc4ccccn4)C(=O)C13)O2 (configuration not stated),,inactive: -2.3%
Cc1nc2ccc(NS(=O)(=O)c3c(F)cc(F)cc3Br)cc2s1,"inconclusive [inhibitor, partial curve]",
CCOC(=O)c1c(NC(=O)CSc2nc3nc(C)cc(C)n3n2)sc(CC)c1C,active: 11.6 µM,
COc1ccc(Nc2nc(NCc3cccs3)nc3ccsc23)cc1OC,active: 25.9 µM,
CCN(C[C@H]1N[C@@](Cc2ccccc2)(C(=O)OC)[C@H]2C(=O)N(Cc3ccccc3)C(=O)[C@@H]12)C(=O)Nc1ccc(Cl)cc1,"inconclusive [inhibitor, single point]",
O=C(c1ccc(Br)cc1)N(Cc1ccco1)c1ccccn1,,inactive: 0.494%
COc1ccc(COC(=O)C2=C(C)NC(=O)NC2c2ccc(O)cc2)cc1 (configuration not stated),,inconclusive: -31.8% [inhibitor]
CC(C)(C)NC(=O)COC(=O)c1ccccc1C(=O)c1ccccc1,"inconclusive [inhibitor, single point]",
COc1ccc(N2CCN(c3ncccc3C#N)CC2)cc1,,inactive: 0.825%
CC(C)(C)NS(=O)(=O)c1ccc(NC(=O)C2CCCO2)cc1 (configuration not stated),"inconclusive [inhibitor, single point]",
CN1C(=O)Cc2cc(S(=O)(=O)NCc3ccccc3Cl)ccc21,"inconclusive [inhibitor, single point]",
CC(C)c1ccc(OCC(=O)N(c2ccccn2)C2CCCCC2)cc1,"inconclusive [inhibitor, single point]",
COc1cccc(/C=C/C(=O)O)c1C(C)C,,inactive: -2.33%
Cc1[nH]ccc(=O)c1OC1OC(CO)C(O)C(O)C1O (configuration not stated),,inactive: 4.31%
Cc1ccc2oc(C(=O)N3CCC(c4nc5ccccc5s4)CC3)c(C)c2c1,"inconclusive [inhibitor, single point]",
CC(=O)c1ccc(NC(=O)c2sc3nc4n(c(=O)c3c2C)CCCCC4)cc1,"inconclusive [inhibitor, single point]",
CCc1nc2ccc(C(=O)Nc3cc(-c4ccccc4)ccc3OC)cn2c1N(C)Cc1ccc(Cl)cc1,active: 18.4 µM,
CC(C)CN1C(=O)C(NC(=O)C2CC2)(C(F)(F)F)C2=C1CC(C)(C)CC2=O (configuration not stated),"inconclusive [inhibitor, partial curve, poor fit]",
CCCCC(=O)NCc1ccc(F)cc1,,inactive: 7.38%
CCCc1ccc(OCc2ccc(C(=O)Nc3ccccc3C(=O)OC)o2)cc1,"inconclusive [inhibitor, single point]",

Structure (SMILES),Potency,"activity change, negative = growth inhibition"
CCc1ccc(CNC(=O)c2cccc(-n3c(C)nc4cccnc43)c2)cc1,active: 13 µM,
Cc1c(C(=O)NCc2cccc(Cl)c2)sc2nc3n(c(=O)c12)CCCC3,"inconclusive [inhibitor, single point]",
C[C@@H]1CCCCO[C@@H](CN(C)C(=O)c2ccccc2)[C@@H](C)CN([C@H](C)CO)C(=O)c2cc(N(C)C)ccc2O1,,inactive: 1.39%
Cc1cccc(NC(=O)Cn2c(O)c(N=NC(=O)c3ccccc3O)c3ccccc32)c1,,inactive: -5.24%
COc1ccc(-c2cnnn2-c2ccc(NC(=O)c3ccccc3OC)cc2)cc1,active: 20.6 µM,
CCOC(=O)c1cc(=O)n2nc(-c3ccccc3F)nc2s1,"inconclusive [inhibitor, single point]",
O=C(c1ccc([N+](=O)[O-])cc1)N1CCSC1c1ccccc1 (configuration not stated),,inconclusive: -36.9% [inhibitor]
COc1ccc([N+](=O)[O-])cc1NC(=O)CSCc1cc(C)cc(C)c1,"inconclusive [inhibitor, single point]",
COc1ccc(CN2CCC3(CCC(CNC(=O)C4CCCO4)O3)CC2)c(C)c1C (configuration not stated),"inconclusive [inhibitor, full curve]",
Cc1noc(C)c1C(=O)N1CCC2(CCCN(C(c3ccccc3)c3ccccc3)C2)CC1,"inconclusive [inhibitor, single point]",
O=[N+]([O-])c1ccc2c(c1)N([O-])C1(CCCCC1)[N+]2=O,active: 25.9 µM,
CCOC(=O)c1c(-c2ccc(Cl)cc2)csc1NC(=O)CNCc1ccco1,"inconclusive [inhibitor, single point]",
NC(=O)c1cccc(-c2csc(C(O)c3cccc(Cl)c3)n2)c1 (configuration not stated),"inconclusive [inhibitor, single point]",
COc1ccc2oc(C(=O)N3CCN(C(c4ccccc4)c4ccccc4)CC3)c(C)c2c1,"inconclusive [inhibitor, single point]",
CCN(CC)CCCNC(=O)c1ccc(Cn2c(SCc3ccccc3)nc3cccnc32)cc1,"inconclusive [inhibitor, single point]",
COc1cccc(CN2CCN(C(=O)c3ccc(-c4ccccc4)cc3)CC2)c1OC,"inconclusive [inhibitor, single point]",
Nc1ccc2nc(-c3ccccc3)sc2c1,,inactive: -19.2%
CC1(C)CC(=O)C=C(c2cccc3c2oc2ccccc23)C1,"inconclusive [inhibitor, single point]",
Cc1c(C(=O)NCc2cccc(Br)c2)oc2ccc3c(c12)C(=O)CC(C)(C)O3,"inconclusive [inhibitor, single point]",
COCCCNC(=O)CC1C[C@H](C(=O)N2CCOCC2)[C@@]2(C)c3[nH]c4ccc(OC)cc4c3CCN2C1=O (some centres not stated),"inconclusive [inhibitor, single point]",
CCc1ccc(C(=O)CSc2nc(N)cc(=O)[nH]2)cc1,"inconclusive [inhibitor, single point]",
CNCCC1Sc2ccccc2Oc2ccccc21 (configuration not stated),"inconclusive [inhibitor, partial curve]",
CCCn1nc(C(=O)Nc2ccc(S(=O)(=O)Nc3ncccn3)cc2)c2ccccc2c1=O,,inactive: -25.8%
O=C(CN1CCN(CCC(=O)Nc2ccccc2F)CC1)Nc1ccc(Cl)cc1,"inconclusive [inhibitor, single point]",
